Data reported in article PMC4336329 (PLoS ONE, 2015).
Hit rate of the full screen: of about 310,000 compounds, about 2,200 (0.71%) showed an effect of 50% or more. The effect is printed as a negative number. This is one part of the list. Where a SMILES comes first, the peptide text is derived from it. The star is where a group is joined. Boc = CC(C)(C)OC(=O)*; OBn = c1ccc(CO*)cc1

Molecular target: human ether-à-go-go-related gene (hERG) potassium channel (human, UniProt Q12809)
Assay: primary screen, population patch clamp on CHO cells stably expressing hERG
Experimental: Briefly, Chinese hamster ovary (CHO) cells stably expressing the hERG channel were dislodged from tissue culture flasks and dispensed into PPC plates. […] During the recording, background leak currents were estimated by a 100 ms step to -80 mV from an initial holding potential of -70 mV and subtracted from the subsequent current measurement. The campaign was conducted in two phases using slight differences in recording protocol. In the first phase, the initial voltage pulse used a 100 ms step to -30 mV from a holding potential of -70 mV, a 2 s conditioning step to +25 mV, and a 2 s test step to -30 mV. During the second phase of the screen, the potential during the conditioning step was raised to +45 mV. In both phases of the campaign, a secondary voltage pulse was applied using the same parameters as the second phase initial pulse. The initial and secondary pulses were applied in the absence of compound, and upon application of 1 μM and 10 μM test concentrations. Small molecule effects on hERG current density were quantified by […].

Chain of human ether-à-go-go-related gene (hERG) potassium channel (Q12809 whole entry, looked up): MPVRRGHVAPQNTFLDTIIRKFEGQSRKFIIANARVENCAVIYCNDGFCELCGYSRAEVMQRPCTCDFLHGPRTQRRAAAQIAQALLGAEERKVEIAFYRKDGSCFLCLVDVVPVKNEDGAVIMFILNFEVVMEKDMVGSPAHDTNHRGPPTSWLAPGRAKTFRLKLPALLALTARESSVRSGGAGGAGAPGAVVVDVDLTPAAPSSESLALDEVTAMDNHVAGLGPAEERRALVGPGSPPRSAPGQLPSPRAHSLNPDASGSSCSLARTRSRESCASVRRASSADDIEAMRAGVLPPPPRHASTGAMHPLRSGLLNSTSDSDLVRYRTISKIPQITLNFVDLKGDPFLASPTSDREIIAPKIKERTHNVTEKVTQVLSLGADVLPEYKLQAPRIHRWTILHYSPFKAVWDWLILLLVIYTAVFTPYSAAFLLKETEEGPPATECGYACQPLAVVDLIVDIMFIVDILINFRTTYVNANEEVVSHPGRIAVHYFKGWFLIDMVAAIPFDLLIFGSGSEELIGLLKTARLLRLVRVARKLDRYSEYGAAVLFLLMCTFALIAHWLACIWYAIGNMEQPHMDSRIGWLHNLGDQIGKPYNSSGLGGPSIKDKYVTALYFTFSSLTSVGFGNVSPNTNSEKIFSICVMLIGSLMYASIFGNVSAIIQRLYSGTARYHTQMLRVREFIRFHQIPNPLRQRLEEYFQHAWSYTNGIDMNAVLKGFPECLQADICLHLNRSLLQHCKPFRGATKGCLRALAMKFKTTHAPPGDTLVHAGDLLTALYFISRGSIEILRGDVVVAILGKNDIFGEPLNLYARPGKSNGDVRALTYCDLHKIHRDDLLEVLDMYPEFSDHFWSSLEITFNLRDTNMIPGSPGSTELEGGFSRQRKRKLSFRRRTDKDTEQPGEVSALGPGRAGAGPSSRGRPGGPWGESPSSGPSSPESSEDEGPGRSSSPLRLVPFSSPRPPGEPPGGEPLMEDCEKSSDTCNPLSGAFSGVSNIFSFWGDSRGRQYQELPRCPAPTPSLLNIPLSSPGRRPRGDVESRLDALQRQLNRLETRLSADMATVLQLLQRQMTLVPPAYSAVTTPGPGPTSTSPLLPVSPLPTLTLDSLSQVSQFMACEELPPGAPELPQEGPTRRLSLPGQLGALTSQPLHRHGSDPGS

Row | Compound | hERG current change (%, negative = inhibition) at 1uM [%]
1 | COc1ccc(/C=N/n2c(-c3cccs3)n[nH]c2=S)cc1 | 7.35
2 | O=C(Nc1ccccc1F)c1cc2nc(C(F)F)cc(C(F)F)n2n1 | -1.73
3 | Cn1c(=O)[nH]c(=O)c2c1[nH]c(=S)n2Cc1ccccc1 | 15.1
4 | Cc1ccc(NC(=O)CSCC(=O)Nc2ccc(S(=O)(=O)N3CCCC3)cc2)cc1 | 5.24
5 | COc1ccc(N2C(=O)c3ccccc3NC23CCC(C)CC3)cc1 (stereo not drawn) | 8.03
6 | CC(Oc1ccc(Br)cc1)C(=O)Nc1ccc(S(=O)(=O)Nc2nccs2)cc1 (stereo not drawn) | 7.65
7 | Cc1cc(=O)[nH]c2cc(O)ccc12 | 1.33
8 | Cc1ccc(-n2c(-c3cccs3)nc3ccccc3c2=O)cc1 | 13.3
9 | O=C(O)C(=O)O.S=C(NCC1CCCO1)N1CCN(Cc2ccccc2)CC1 (stereo not drawn) | -7.77
10 | COc1ccc(NC(=O)N2CCc3ccccc32)cc1 | 5
11 | CN(C)C(=O)c1noc2cc([N+](=O)[O-])ccc12 | -5.1
12 | CCOC(=O)c1c(NC(=O)CC2SC(N)=NC2=O)sc(C)c1C (stereo not drawn) | 16.2
13 | CN(C)S(=O)(=O)N1CCN(C(=O)N2CCCCC2)CC1 | 2.59
14 | Cc1ccc(C(=O)C(O)C(c2ccc(C)cc2)N2CCCCC2)cc1 (stereo not drawn) | -4.55
15 | COCCN1C(=O)N[C@@H](CCc2ccccc2)[C@H](C(=O)OC)[C@H]1C | 18.2
16 | CSc1nc2c(c(=O)[nH]1)C(c1ccc(F)cc1)CC(=O)N2 (stereo not drawn) | 9.96
17 | CN(CC(=O)Nc1ccccc1Cl)C(=O)COC(=O)C1=COCCO1 | 2.66
18 | CSc1ccccc1NC(=O)CN(C)C(=O)c1ccc(-n2cccn2)cc1 | 6.41
19 | CC(=O)O[C@H]1C[C@@H]2CC[C@@H]3[C@H](CC[C@]4(C)C(=O)CC[C@@H]34)[C@@]2(C)C[C@@H]1OC(C)=O | 12.8
20 | CC(C)C1CC(c2csc(N)n2)CCO1 (stereo not drawn) | 14.9
21 | CCCC(=O)Nc1ccc(C(=O)/C=C/c2ccc(SC)cc2)cc1 | 20.6
22 | C/C(CCC1CC(C)OC1=O)=N/Nc1nc(-c2ccccc2)cs1 (stereo not drawn) | 14
23 | O=C(NC1CCCCC1)c1sc(=S)n2c1[nH]c(=O)c1ccccc12 | 15.8

Row | Compound | hERG current change (%, negative = inhibition) at 1uM [%]
24 | Cc1cc2c(cc(C(=O)NCCCN3CCOCC3)n2Cc2ccc(Cl)cc2)o1 | -7.25
25 | CCOc1ccc(N(CC(=O)NCC2CCCO2)S(=O)(=O)c2ccc(SC)cc2)cc1 (stereo not drawn) | -6.73
26 | O=C(NC1CCCCC1)n1c(=O)oc2ccccc21 | 6
27 | CC(=O)Nc1ccc(SCC(=O)Nc2ccccc2Oc2ccccc2)cc1 | 3.2
28 | CCOC(=O)C1CCN(c2c(NCc3ccc(N(C)C)cc3)c(=O)c2=O)CC1 | -1.04
29 | Cn1cc(C(=O)C(F)(F)F)c2ccccc21 | 7.78
30 | COc1ccccc1NC(=O)CSc1nnc(-c2ccoc2C)n1CC1CCCO1 (stereo not drawn) | 13.6
31 | COc1ccc(N2CCN(C(=O)c3cc(C4CC4)nn3-c3ccccc3)CC2)cc1 | 5.29
32 | Cc1c(C(=O)NC(C)c2ccc(-n3ccnc3)cc2)cccc1[N+](=O)[O-] (stereo not drawn) | -36
33 | COc1ccc(C(=O)NCCS(=O)(=O)N2CCN(C(=O)c3ccco3)CC2)cc1 | -0.137
34 | COc1ccc(C(=O)NCCS(=O)(=O)N2CCc3ccccc3C2)cc1 | 4.1
35 | CC(C)CNC(=O)C1CCN(S(=O)(=O)c2ccc3c(c2)OCCO3)CC1 | 8.36
36 | COc1cc(NC(=O)c2cnc(NCc3ccccc3)nc2C)cc(OC)c1OC | 11.3
37 | Cc1ccc(S(=O)(=O)Nc2ccc(NC(=O)c3c(F)c(F)c(F)c(F)c3F)cc2)cc1 | 1.72
38 | O=C(CN1CCN(S(=O)(=O)c2ccccc2)CC1)Nc1ccc(N2CCOCC2)cc1 | 10.8
39 | CC1C(=O)C(C)C(c2ccc(Cl)cc2)NC1c1ccc(Cl)cc1.Cl (stereo not drawn) | 16
40 | CCN1CCCC1CN(Cc1cc2cc(C)ccc2[nH]c1=O)C(=O)Nc1ccccc1OC (stereo not drawn) | -12
41 | CCCCc1c(C(=O)O)cc(OC)cc1C(=O)O | 12.7
42 | CC(C)(C)C(=O)O/N=C(\N)Cc1ccc(-c2csnn2)cc1 | 5.34
43 | Cc1cc(N2CC(C)OC(C)C2)n2cc(-c3ccccc3)nc2n1 (stereo not drawn) | -29.7
44 | CN(C)[C@@H]1CCC[C@H]1OC(=O)C(c1ccccc1)c1ccccc1 | -40.2
45 | Cc1cccc(NC(=O)CN2C(=O)NC3(CCCC3)C2=O)n1 | 4.59
46 | O=C(CNc1cccc2ccccc12)N/N=C/c1ccc(C(=O)O)cc1 | 8.61

Row | Compound | hERG current change (%, negative = inhibition) at 1uM [%]
47 | CC1(C)C(C=C(Cl)Cl)C1C(=O)N(Cc1ccc(Cl)cc1)C1CCS(=O)(=O)C1 (stereo not drawn) | -2.82
48 | O=c1[nH]c(N2CCCCCC2)nc2ncn(Cc3ccccc3)c12 | 6.1
49 | Br.CCCCn1c(=N)n(CC(=O)c2ccc(Br)s2)c2ccccc21 | 2.98
50 | Cc1cc(F)c(F)c(C(=O)N2CCC(C)CC2)c1Cl | 5.24
51 | COc1cccc(C(=O)N2N=C(c3ccccn3)CC2(O)C(F)(F)F)c1 (stereo not drawn) | 12.2
52 | COc1nc(N)nc(N)c1NS(=O)(=O)c1ccc(C)cc1 | 20.5
53 | Cc1ccc(C(=O)CSc2nnc(-c3ccncc3)n2C)cc1 | 12
54 | CCOc1ccc(C2(C#N)CC[N+](C)(C)CC2)cc1.[Br-] | 9.8
55 | C/C(=C\c1ccco1)C1Nc2cccc3cccc(c23)N1 | -4.32
56 | O=C(COc1ccccc1)Nc1ccc(N2CCN(C(=O)c3cccs3)CC2)cc1 | 11.5
57 | COc1ccc(NC(=S)NC23CC4CC(CC(C4)C2)C3)cc1OC | 10.8
58 | O=C(O)/C=C/C(=O)N(Cc1ccccc1)Cc1ccco1 | -0.159
59 | COCCn1c(=O)c2c(nc3n2CC(C)CN3CCc2ccccc2)n(C)c1=O (stereo not drawn) | -9.39
60 | O=C(Cc1c(O)c2ccccc2[nH]c1=O)N(Cc1ccccc1)Cc1ccccc1 | 2.34
61 | O=C(N=Nc1c(O)[nH]c2ccccc12)c1cc(-c2cccs2)[nH]n1 | 9.76
62 | COc1cccc(CNC(=O)c2ccc(Cl)c(NC3=NC4CS(=O)(=O)CC4S3)c2)c1 (stereo not drawn) | 3.44
63 | Cc1ccnc(N2CCCC(C(=O)Nc3nnc(C)s3)C2)n1 (stereo not drawn) | 9.23
64 | COc1ccc(CN(C)CC(=O)NCC(=O)Nc2c(C)cccc2C)cc1 | -3.33
65 | CCOc1cc2c(C#N)c(N3CCCCC3)nc(N)c2c(N)n1 | 2.45
66 | CCc1nn(C)c2c(=O)c(=O)c2n(C)[nH]1 | 10.7
67 | Cc1nnc2sc(SCc3ccc(Br)cc3)nn2c1=O | 12.6
68 | COc1ccccc1NC(=O)Cc1nn(C)c(=O)c2ccccc12 | 11.6
69 | O=C(CN1C(=O)NC2(CCCCC2)C1=O)Nc1ccc2[nH]c(=O)[nH]c2c1 | 13.5

Row | Compound | hERG current change (%, negative = inhibition) at 1uM [%]
70 | COc1ccc(Br)cc1CN(C)CC(=O)Nc1c(Cl)ccc(C)c1Cl | 8.74
71 | Cn1cnnc1SCC(=O)c1ccc(OC(F)F)cc1 | -14.5
72 | CN1CCCC(CC2c3ccccc3Sc3ccccc32)C1.Cl.O (stereo not drawn) | -7.15
73 | Cn1c(=O)n(C)c2cc(N3CCOCC3)c(NC(=O)c3cccc(Cl)c3)cc21 | 6.14
74 | Cc1cc(NC(=O)c2sccc2C)n(-c2cccc(Cl)c2)n1 | 7.25
75 | CCn1cc(/C=N/NC(=O)c2ccc3c(c2)OCO3)cn1 | -2.06
76 | Fc1ccc(CCNC(=S)Nc2ccc(F)c(Cl)c2)cc1 | 14.9
77 | C/C(CC1CC(COCC(C)C)OC1=O)=N\NC(N)=S (stereo not drawn) | 10.2
78 | CCOC(=O)c1cccc(NC(=O)CCS(=O)(=O)c2cccc3nsnc23)c1 | 6.07
79 | CC(=O)NC1C(=O)N(CCN2CCOCC2)c2ccc(C)cc21 (stereo not drawn) | 16
80 | CN1C(=O)C2(NC(=O)c3ccccc3N2C)c2ccccc21 (stereo not drawn) | 4.54
81 | COCCCN1C(=O)C(=O)/C(=C(/O)c2ccc(S(=O)(=O)N3CCOCC3)cc2)C1c1ccc(C)cc1 (stereo not drawn) | 12.7
82 | O=C(O)CCC(=O)Nc1ccc(Br)cc1C(=O)c1ccccc1 | 12.4
83 | C/C(=N\NC(=O)Cc1ccc(Br)cc1)c1cccnc1 | 12.6
84 | COCCCNC(=O)C1CCN(C(=O)c2oc3cc4sc(N(C)C)nc4cc3c2C)CC1 | -7.8
85 | CN1C(=O)OC2(C)CCc3ccccc3C12C (stereo not drawn) | 6.53
86 | CC(C)(C)OC(=O)NCC(=O)NCC(=O)OCc1ccccc1 (Boc-Gly-Gly-OBn) | 0.569
87 | COc1ccc(Cc2noc(CN(C)CC3(N4CCOCC4)CCCCC3)n2)cc1OC | 4.01
88 | CC1=C(C(=O)N2CCCC(N3CCN(c4cccc(C(F)(F)F)c4)CC3)C2)OCCO1 (stereo not drawn) | -7.71
89 | COc1ccc(C(=O)Nc2ccccc2N2CCOCC2)cc1S(=O)(=O)N1CCOCC1 | 0.225
90 | Cc1ccc(S(=O)(=O)N(C)C)cc1NC(=O)CSc1ncn[nH]1 | 6.23
